# Source: the supplement of paper PMC11417369
# ± gives the standard deviation of the averaged measurements. Some of the results follow.
# Test system: PfAP2-I AP2 domain 3 (GST-tagged)
# Assay: gcPBM binding intensity (ln(normalized median fluorescence intensity)); higher = stronger DNA binding
# How it was run: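 Binding intensity is the highest Masliner-normalised natural-log median intensity over replicate spots in either probe orientation. To obtain it, GST-tagged P. falciparum DNA-binding domains made in E. coli were incubated for 1 h on an Agilent 4 × 180k array of primer-extended double-stranded 36-bp intergenic genomic probes plus negative controls. Detection used Alexa488 anti-GST antibody with scanning at 488 nm.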
row,Sequence,gcPBM binding intensity (ln)
1,TCTATAAAGGAATATACACACATATATAAATATGTA [CACACA_site6332],7.37 ± 0.37
2,AACCTTTATATGTAAAGTACAAAAAAGAGTAAAAAA [XGTACX_site5506],7.79 ± 0.71
3,TATAAAAATGTGCACACACACACATATTTATATTTA [CACACA_site6826],9.365 ± 0.007
4,TATATTATATACCATTGTACATATAATATAGGTTCT [XGTACX_site7047],7.58 ± 0.4
5,AAAATCATTCCAAAGACATGCATTTTGCAAATAAAA [TGCATGCA_site461],7.71 ± 0.69
6,ATTAATTATAATGTATGTACATAACTTTTTTATATT [XGTACX_site5784],7.76 ± 0.4
7,AACATACATAGACACACACACACACGCACACGCACA [CACACA_site6373],8.44 ± 0.29
8,GAAAATACGTTTAATCGTACATATATATAATATATA [XGTACX_site4243],7.68 ± 0.34
9,TATTTACCCTCATGTTGTACTTTTCATTCATTTTAT [XGTACX_site7794],8.16 ± 0.61
10,ACAAGTTTTTTTTTATCACACACAAAAAAAAAAATA [CACACA_site8377],7.9 ± 0.44
11,TTTATTATTTTTAGGAGTACACAAAATAAAACAAAT [XGTACX_site8841],8.23 ± 0.24
12,AAATGTTATATATAATGTACTTGTAAGAACGTTCCT [XGTACX_site2840],7.58 ± 0.69
13,AATAATGTATGAAATAAACACACAAGTAAGTACATA [CACACA_site8776],7.87 ± 0.38
14,ATAATTTTAAATAAATGTACATATAGATGTGTGTAA [XGTACX_site3958],8.2 ± 0.44
15,AAAATTATATATTATAGTACATAAAATATTGATAAA [XGTACX_site8988],7.7 ± 0.32
16,ATGAGAAAATATATTATTTTATATGAACAAGTTTAT [XGTACX_negctrl_site372],7.38 ± 0.69
17,TATAACATTGTATGAATGCACTTTTATCTATTTTAA [GTGCAC_site9903],9.57 ± 0.33
18,AAGATACACTTAATCGCACACGAAATTATATATTTA [CACACA_site3063],7.89 ± 0.4
19,TTTTTTTTTTATGTTATTAAAAAAAAAAAAAATTAA [CACACA_negctrl_site222],7.57 ± 0.38
20,ATATATAATCATATGTGTACATATATATTAATTTAA [XGTACX_site2839],7.79 ± 0.32
21,AATTCAAAATAAAAATGTACATATATCAGAATATGG [XGTACX_site42],7.87 ± 0.52
22,AAAAAAAAAAAAAAAACACACATTTAATGAACTTAT [CACACA_site1276],8.71 ± 0.47

row,Sequence,gcPBM binding intensity (ln)
1,ACTTGTAAGAAACACACACACACACCGATATATATA [CACACA_site4594],8.28 ± 0.68
2,AAAAATAAGAAAAAGTGTACTTTATTATGTATATAT [XGTACX_site2305],8.12 ± 0.2
3,ATTATTTTTTTTCTTATACACACCATGCATCAAACT [CACACA_site2128],8.47 ± 0.66
4,CCAACTATATTATGAAGTACATATATATTATATATA [XGTACX_site5767],7.8 ± 0.16
5,TATACATATTTTATAGCACACAAATAATAATATGTA [CACACA_site8129],8.9 ± 0.2
6,AAACCTACATAACATACACACGCATATATATAATTT [CACACA_site8923],8 ± 0.6
7,TTTTTTTTTTTTTATTGTACATGCAAAAAATTCCAC [XGTACX_site2371],8.07 ± 0.44
8,ATATATATATATTGTAGTACTTATTAAATTATTTAT [XGTACX_site6235],8.985 ± 0.078
9,TCTGTATTTCCTTATGCATGCATTAGCAAGATAATA [TGCATGCA_site483],8.39 ± 0.57
10,GTAAGTATATATAAATGTACTTATGAGGTCAAATTA [XGTACX_site3392],7.68 ± 0.57
11,TTGGGTATTTTGTGCGCACACACATGCAAAAAGAAA [CACACA_site8299],10.5 ± 0.18
12,AGAGATACATAAAAAAGTACATATAAAATTTAGGAA [XGTACX_site7201],7.96 ± 0.19
13,TAAGTATACTCATACACACACACACTAGAAAAAAAA [CACACA_site4397],7.93 ± 0.54
14,TATTTATTTATATACACACACTTGTATAAAAAATGT [CACACA_site7048],7.95 ± 0.5
15,TACAAATTAATATGTACACACAAATATATATATATA [CACACA_site1977],9.22 ± 0.11
16,ATAATATGAAACTAAGGTACACATATATTAACAGAG [XGTACX_site3842],8.29 ± 0.23
17,TGCGACCATAATAAAGCACACAATGAAAAATATATA [CACACA_site256],9.4 ± 0.39
18,TGTGCTCAAAATTATGCACACACCTAAAATTAATTT [CACACA_site8950],10.3 ± 0.6
19,CCAATAATATATAGAAGTACAGAAAAAAAAAAAAAA [XGTACX_site2049],8.07 ± 0.46
20,AAGAAAATTAAATTAACACACATAAATATGTAAATA [CACACA_site6882],7.42 ± 0.36
21,CCCTCTTCTCTCATATCACACATGTCATCCTTATCC [CACACA_site5078],8.44 ± 0.35
22,TATAAATATTTATAAACACACAAATATATATATTTA [CACACA_site27],7.71 ± 0.25
